Results: PubChem BioAssay (NCATS)
The inconclusive results got no clear call from the source; some entries with a clear call stand among them for comparison. Potencies of inconclusive entries are left out as doubtful fits. Activity calls are given as the source filed them. Calls come from the whole dose curve; as a rule, active = well fitted curve in the direction sought with a large enough effect; inconclusive = small, poorly fitted or top-dose-only effect, or another doubt; inactive = no such curve, though single readings can be large; an effect the other way counts as inactive or inconclusive.

target: Rap guanine nucleotide exchange factor 3 (Homo sapiens) (UniProt O95398); assay: Confirmatory qHTS for antagonist of cAMP-regulated guanine nucleotide exchange factor 3 (EPAC1) (AID 1645880); conditions: EPAC1 Rap1B-BODIPY-GDP exchange, fluorescence; activity, negative = inhibition: at 115 µM (top of the series); note: nearly all actives have a fitted effect of over 55% in size;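 for activity, negative = inhibition: plate controls were DMSO only for no effect and full effect of the ATA control for full effect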
Method in brief: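 Nucleotide exchange uses 100 nM EPAC1, 250 nM RAP1B-BODIPY-GDP and 50 uM GDP, with compounds in a concentration-titration series. After 5 min at room temperature, fluorescence (480 nm ex/540 nm em) is read every 5 min for 30 min. Data are normalized to control ATA and DMSO.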
Potency is the fitted concentration of half-maximal effect; tags give direction and shape of the fitted curve.

Sequence of UniProt O95398 (O95398 whole entry, looked up): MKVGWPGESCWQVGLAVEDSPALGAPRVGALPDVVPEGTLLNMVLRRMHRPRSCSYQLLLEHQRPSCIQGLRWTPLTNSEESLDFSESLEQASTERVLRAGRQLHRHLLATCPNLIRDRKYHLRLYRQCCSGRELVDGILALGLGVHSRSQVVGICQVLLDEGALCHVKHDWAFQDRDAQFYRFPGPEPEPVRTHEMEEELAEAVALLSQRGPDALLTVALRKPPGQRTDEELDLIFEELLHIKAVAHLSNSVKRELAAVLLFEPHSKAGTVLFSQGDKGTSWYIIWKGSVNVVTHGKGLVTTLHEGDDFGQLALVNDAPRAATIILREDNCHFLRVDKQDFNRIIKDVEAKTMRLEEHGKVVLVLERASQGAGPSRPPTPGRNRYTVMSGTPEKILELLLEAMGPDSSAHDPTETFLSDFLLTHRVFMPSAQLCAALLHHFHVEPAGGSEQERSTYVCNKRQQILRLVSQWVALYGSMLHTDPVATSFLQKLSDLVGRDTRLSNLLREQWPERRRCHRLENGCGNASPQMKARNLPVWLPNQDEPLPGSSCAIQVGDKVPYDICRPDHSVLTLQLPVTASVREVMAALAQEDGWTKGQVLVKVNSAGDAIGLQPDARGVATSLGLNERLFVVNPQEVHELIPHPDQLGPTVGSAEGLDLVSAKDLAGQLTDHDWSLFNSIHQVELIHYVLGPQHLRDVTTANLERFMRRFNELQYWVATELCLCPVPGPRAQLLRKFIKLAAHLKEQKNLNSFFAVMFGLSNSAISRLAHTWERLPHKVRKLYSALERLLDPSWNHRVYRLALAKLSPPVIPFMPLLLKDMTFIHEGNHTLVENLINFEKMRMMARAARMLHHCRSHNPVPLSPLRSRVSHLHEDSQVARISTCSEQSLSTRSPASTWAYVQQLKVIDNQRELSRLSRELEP

SMILES | Potency | activity, negative = inhibition
CCn1cc(CN2CCc3c([nH]c4ccccc34)C2c2cccc(OC)c2)c(C)n1 (stereo not given) | inconclusive [inhibitor, partial curve, poor fit] | 
O=C1NC(=S)S/C1=C\C=C\c1ccc([N+](=O)[O-])o1 | active: 8.49 µM | 
COc1ccc2sc(-c3ccc(SC)cc3)c(C#CC(C)(C)O)c2c1 | inconclusive [inhibitor, partial curve] | 
CC(C)c1ccc(S(=O)(=O)Nc2ccc3c(c2)OCO3)cc1 | inconclusive [inhibitor, partial curve, poor fit] | 
Cc1ccc(-c2csc(NC(=O)c3ccc(Br)cc3)c2C(=O)O)cc1 | active: 33.8 µM | 
Cc1cc(C)c(C)c(S(=O)(=O)Nc2cccc(S(=O)(=O)Nc3ccccc3C(=O)O)c2)c1C | active: 39.8 µM | 
CCc1nc(C)cn1S(=O)(=O)c1cc(C)c(OC)cc1C |  | inactive: -17.3%

target: Rap guanine nucleotide exchange factor 3 (Homo sapiens) (UniProt O95398); assay: Confirmatory qHTS for agonist of cAMP-regulated guanine nucleotide exchange factor 3 (EPAC1) (AID 1645881); conditions: EPAC1 Rap1B BODIPY-GDP exchange fluorescence; activation: at 154 µM (top of the series), 100% = cAMP control response; note: nearly all actives have a fitted effect of over 75% in size;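 for activation: EPAC1 catalysed release of BODIPY-GDP from Rap1B seen as fluorescence loss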

SMILES | Potency | activation
CC(OC(=O)/C(C#N)=C/c1ccc(N(C)C)cc1)C(=O)N(C)c1ccccc1 (stereo not given) | active: 50.1 µM | 
COc1cc(C2CC(=O)Oc3cc(C)cc(C)c32)cc(OC)c1OC (stereo not given) |  | inconclusive: 16.3% [activator]
O=C1c2ccccc2C(=O)N1c1nc(-c2cccs2)cs1 |  | inactive: 12.9%
Cc1ccccc1C(=O)Nc1ccc(C(=O)OCc2cc(=O)n3c4c(sc3n2)CCCC4)cc1 | inconclusive [activator, single point] | 
Cc1ccc(NS(=O)(=O)c2cccc3cccnc23)c(Cl)c1 | inconclusive [activator, partial curve, poor fit] | 
O=c1c(O)c(-c2ccc(O)c(O)c2)oc2c(OC3OC(CO)C(O)C(O)C3O)c(O)cc(O)c12 (stereo not given) |  | inactive: -3.32%
COC(=O)c1cc(NC(=O)c2ccccc2)c(=O)oc1C/C=N\OCc1ccc(Cl)cc1Cl | inconclusive [activator, single point] | 
CCc1nc(C)cn1S(=O)(=O)c1cc(C)c(OC)cc1C |  | inactive: 8.53%
